In all, about 120,000 compounds went through this assay and about 5,300 (4.4%) were called active. Inconclusive means that the source gave no clear call. Such entries were picked first, then a sample of the others. Calls follow the shape of the dose curve; as a rule, active = well fitted inhibition curve with a large enough effect; inconclusive = small, poorly fitted or top-dose-only effect; inactive = no such curve, though single readings can be large or run the other way. Potencies of inconclusive entries are doubtful fits and often do not repeat.
Assay: qHTS Primary assay for Inhibitors of Plasmodium falciparum Dd2 growth in vitro; also: nearly all actives have a fitted effect of over 65% in size;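 as to activity, negative = inhibition: plate controls were DMSO vehicle for no effect and reference drug for full effect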
Conditions: P. falciparum Dd2 growth, SYBR Green, 72 h; activity, negative = inhibition: at 28.9 µM (top of the series) unless noted; series mostly up to 28.9 µM
Summary of the method: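 Readout: SYBR Green fluorescence, 485 nm excitation, 535 nm emission, after ~16 h lysis at 37C. Before that, Dd2-infected red cells (2.5% hematocrit) grew 72 h with compound, 29 uM top final concentration.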
Potency is read from the fitted curve at half-maximal effect; tags tell the direction and shape of the fitted curve.

Row | Compound | activity, negative = inhibition | Potency | outcome
1 | Nc1nc(NCCNC(=O)c2ccccc2Cl)cc(C2CC(O)C2)n1 (stereo unspecified) | inactive: -6.62% | – | –
2 | CCCN1CCC2(Cc3ccccc3CN([S+](=O)([O-])c3ccccc3)C2)C1 (stereo unspecified) | – | inconclusive: 3.98 µM [inhibitor, partial curve, poor fit] | –
3 | COc1ccc(OC)c(CNC(=O)COc2ccc(NC(=O)C3CC3)cn2)c1 | – | inconclusive: 17.8 µM [inhibitor, single point] | –
4 | CCOc1ccc(NC(=O)c2c(NC(=O)c3ccncc3)sc3c2CCC(C(C)(C)C)C3)cc1 (stereo unspecified) | – | – | inactive
5 | COc1ccc(NC(=O)c2ccco2)cc1NC(=O)COc1cc(C)ccc1C(C)C | – | inconclusive: 1 µM [inhibitor, partial curve, poor fit] | –
6 | CN(C)c1cc(N2CCCC(NC(=O)c3ccccc3F)C2)ncn1 (stereo unspecified) | – | – | inactive [at 5.79 µM]
7 | Cc1cccc(NC(=O)Cn2ccn3nc(-c4ccc(F)cc4)c(CO)c3c2=O)c1C | inactive: -7.54% | – | –
8 | O=C(Nc1ccccc1)NC1CCN(C(=O)N2CC3CC(C2)[C@H]2CCCC(=O)N2C3)CC1 (stereo partly specified) | inactive: -21.6% | – | –
9 | Cc1nc(N)c(S(=O)(=O)c2ccccc2)c(Nc2ccc(Br)cc2)n1 | inactive: 17.7% | – | –
10 | CCC(C(=O)Nc1ccc(F)cc1F)n1nc(-c2ccccc2)c2c(c1=O)CCCC2 (stereo unspecified) | – | inconclusive: 11.2 µM [inhibitor, single point] | –
11 | COCCNc1cc(-c2ccnc(SC)n2)c2cc[nH]c2n1 | – | inconclusive: 10 µM [inhibitor, single point] | –
12 | COc1cccc(CN2CCC3(CC2)COc2ccccc2CN3)c1 | – | inconclusive: 17.8 µM [inhibitor, single point] | –
13 | Cc1ccccc1Nc1c(-c2ccc(O)cc2)nc2c(C)cccn12 | – | active: 11.2 µM | –
14 | O=C(O)Cn1nc(C2CCOC2)nc1C1(c2ccccc2)CC1 (stereo unspecified) | inactive: -5.05% | – | –
15 | COc1cccc(NC2=CC(c3ccc(C(C)C)cc3)N(c3cccc(OC)c3)C2=O)c1 (stereo unspecified) | – | inconclusive: 17.8 µM [inhibitor, single point] | –
16 | CC(=O)NC1(C)CCN(Cc2cccc(-c3ccc4ccccc4c3)c2)C1 (stereo unspecified) | – | inconclusive: 7.94 µM [inhibitor, partial curve, poor fit] | –
17 | O=C(Nc1ccc(F)cc1)Nc1nnc(SCC(=O)N2CCCCC2)s1 | – | inconclusive: 0.01 µM [inhibitor, full curve, poor fit] | –
18 | CSc1nccc(N2CCC3(CC2)CC(=O)N(CC(C)C)C3)n1 | inactive: -24.6% | – | –
19 | COc1ccc(CCNC(=O)C2CC(=O)N(c3n[nH]c4cccc(F)c34)C2)cc1OC (stereo unspecified) | inactive: -0.888% | – | –
20 | O=C(NCC(F)F)C1CN(c2ccccc2)C(=O)N1 (stereo unspecified) | – | – | inactive [at 44.1 µM]
21 | CCN(Cc1ccccc1)C(=O)CCS(=O)(=O)c1cc(Br)cc2c1N(C(=O)C1CC1)CC2 | – | inconclusive: 12.6 µM [inhibitor, partial curve, poor fit] | –
22 | c1ccc(CN2Cc3[nH]cnc3C[C@H]2c2nc(-c3ccccn3)no2)cc1 | – | inconclusive: 8.91 µM [inhibitor, partial curve, poor fit] | –

Row | Compound | activity, negative = inhibition | Potency | outcome
23 | CC1CCN(CC2CCCCCN2C(=O)NCc2ccc(F)cc2)CC1 (stereo unspecified) | – | inconclusive: 1 µM [inhibitor, partial curve] | –
24 | COc1ccc(Cn2c(C3CCN(C(=O)c4ccc(F)c(Cl)c4)CC3)n[nH]c2=O)cc1 | – | inconclusive: 10 µM [inhibitor, single point] | –
25 | CN(Cc1ccc(F)cc1)c1ccc2ncc(Nc3cccc(O)c3)n2n1 | – | inconclusive: 11.2 µM [inhibitor, partial curve, poor fit] | –
26 | COc1ccccc1C(=O)N1CCC2(CC1)N(C)C(=O)CS2(=O)=O | inactive: 0.833% | – | –
27 | CCN(CC)C(=O)c1sc2c(c1C)c(=O)n(Cc1ccccc1)c(=O)n2CC(=O)Nc1ccc(OC)cc1 | – | inconclusive: 10 µM [inhibitor, single point] | –
28 | COC(=O)CCNC(=O)C1c2ccccc2C(=O)N(C2CCCCC2)C12CCCCC2 (stereo unspecified) | – | inconclusive: 17.8 µM [inhibitor, single point] | –
29 | COCCCNC(=O)C1CCN(C(=O)c2ccc(-n3ccc4ccccc43)s2)CC1 | – | inconclusive: 11.2 µM [inhibitor, single point] | –
30 | Cc1nc(C)c(C(=O)NCC2CCCCC(=O)N2)s1 (stereo unspecified) | – | inconclusive: 0.224 µM [inhibitor, full curve] | –
31 | Fc1ccc(CN2CCC(N3CC(OCC4CC4)C34CCOCC4)CC2)c(F)c1 (stereo unspecified) | – | inconclusive: 8.91 µM [inhibitor, partial curve, poor fit] | –
32 | O=C(c1ccc(F)cc1)N1CCn2c(nnc2-c2ccccc2)C1 | – | inconclusive: 1.26 µM [inhibitor, full curve] | –
33 | O=C(c1ccc(F)cc1)N1CCC(Cc2nc(-c3ccc(F)cc3)no2)CC1 | – | inconclusive: 17.8 µM [inhibitor, single point] | –
34 | Cc1cccc(-n2c(/C=C/c3c[nH]c4ccccc34)nc3ccccc3c2=O)c1 | – | inconclusive: 11.2 µM [inhibitor, single point] | –
35 | CCOc1ccccc1NC(=O)Cn1c(=O)n(CCCCC(=O)NCCCOC)c(=O)c2ccccc21 | inactive: -25.4% | – | –
36 | O=C(c1cccc(O)c1)N1CC(CNc2ccccc2)C2(C1)CN(c1ccccc1)C2 (stereo unspecified) | – | inconclusive: 3.55 µM [inhibitor, single point] | –
37 | CNC(=O)CCn1ncc2cc(OCc3ccccc3-c3cc(F)ccc3OC(C)C)ccc21 | – | inconclusive: 3.16 µM [inhibitor, single point] | –
38 | O=C1c2c(nc(COc3ccccc3)n2Cc2ccccc2)NCCN1CC1CC1 | – | inconclusive: 12.6 µM [inhibitor, single point] | –
39 | CCc1ccccc1N(C)C(=O)c1cc2c(Cl)nc3ccc(C)cc3c2s1 | inactive: 94.7% [at 5.79 µM] | – | –
40 | Cc1ccccc1OCc1ccc(-c2nc(C#N)c(N3CCCCC3)o2)o1 | – | inconclusive: 8.91 µM [inhibitor, partial curve] | –
41 | CCCCNC(=O)c1cnn2c(C)c(Cc3c(C)cc(C)cc3C)c(C)nc12 | – | inconclusive: 17.8 µM [inhibitor, single point] | –
42 | O=C(NCc1ccccc1)N1CCC(c2nc(C3CCOCC3)no2)CC1 | – | inconclusive: 0.355 µM [inhibitor, full curve] | –
43 | Cc1ccc(CNC(=O)c2c(-c3ccc(F)cc3F)noc2C)o1 | inactive: -0.0683% | – | –
44 | COc1ccc(-c2cn3nc(N4CCCC(C(=O)Nc5cc(Cl)ccc5OC)C4)sc3n2)cc1 (stereo unspecified) | inactive: -8.6% | – | –

Row | Compound | activity, negative = inhibition | Potency | outcome
45 | COc1ccc(-c2nc(-c3ccccc3)nc3c2CN([S+](=O)([O-])c2cccs2)CC3)cc1 | – | inconclusive: 7.94 µM [inhibitor, partial curve, poor fit] | –
46 | CCc1cccc(N2C(=O)CSC23C(=O)N(Cc2ccccc2F)c2ccccc23)c1 (stereo unspecified) | – | inconclusive: 8.91 µM [inhibitor, partial curve, poor fit] | –
47 | COc1ccc(-n2ncc(C(=O)NCc3ccc4c(c3)OCO4)c2C2CCN(C(=O)OC(C)(C)C)CC2)cc1 | – | inconclusive: 15.8 µM [inhibitor, single point] | –
48 | CN1[C@@H](CCC(=O)NCc2ccccc2)CNC(=O)[C@@H]2[C@H]1CCN2Cc1cccc(OC(F)(F)F)c1 | – | – | inactive
49 | COC(=O)[C@@H]1Cc2ncn(C)c2CN1S(=O)(=O)c1cccs1 | – | – | inactive [at 44.1 µM]
50 | Cc1cccc(OCC(=O)N2CC(c3nnc(C(C)C)o3)C3(CCOCC3)C2)c1 (stereo unspecified) | inactive: 7.55% | – | –
51 | CC(C)c1noc(-c2cccn3c(CNC(=O)C4CC4)nnc23)n1 | inactive: 43.8% | – | –
52 | CCOC(=O)c1ccc(NC(=O)CC2Nc3cc(C)c(C)cc3NC2=O)cc1 (stereo unspecified) | – | active: 3.98 µM | –
53 | COC[C@@H]1[C@H](C(=O)N2CCN(c3ccccc3OC)CC2)CCC(=O)N1C | inactive: -20.4% | – | –
54 | CN1CC(=O)N(C2CCCNC2)Cc2c(NCC(C)(C)C)ncnc21 (stereo unspecified) | inactive: 9.62% | – | –
55 | Cn1nc(-c2cccs2)cc1[C@H]1CN2CC[C@H]1C[C@@H]2CNC(=O)NCc1ccccc1 | – | inconclusive: 6.31 µM [inhibitor, partial curve, poor fit] | –
56 | CN(C)[S+](=O)([O-])c1ccc2c(c1)OCCN(Cc1ccccn1)C2 | – | inconclusive: 4.47 µM [inhibitor, partial curve, poor fit] | –
57 | Cc1ccn2c(C(=O)NCC3CCN(c4cnn(C)c(=O)c4)C3)nnc2n1 (stereo unspecified) | inactive: 2.06% | – | –
58 | Cc1ccc(-c2nc(CNC(=O)C3CCNC3)[nH]c2-c2ccccn2)cc1 (stereo unspecified) | – | inconclusive: 14.1 µM [inhibitor, partial curve, poor fit] | –
59 | COc1ccc(N2CC3CCC(C2)N3[S+](C)(=O)[O-])cc1 | inactive: 14.5% | – | –
60 | CC(=O)N1CCCc2cc(S(=O)(=O)N3CCCC(C(=O)N4CCN(c5ccccc5F)CC4)C3)ccc21 (stereo unspecified) | – | inconclusive: 17.8 µM [inhibitor, single point] | –
61 | COc1ccc(NC(=O)NC[C@H]2Cn3cc(-c4ccc(C)cc4)nc3CO2)cc1 | – | active: 2.51 µM | –
62 | COc1cccc(CNC(=O)c2cc(-c3ccncc3)cn2C)c1 | – | inconclusive: 8.91 µM [inhibitor, partial curve, poor fit] | –
63 | Cc1cccc(C(C(=O)N2CCN(S(=O)(=O)N(C)C)CC2)N(C)C)c1 (stereo unspecified) | – | inconclusive: 14.1 µM [inhibitor, single point] | –
64 | CC(C)(C)c1ccc(-c2cc(C[C@H]3CNCC[C@H]3CC(=O)N3CCN(c4ccccn4)CC3)no2)cc1 | – | inconclusive: 0.501 µM [inhibitor, full curve, poor fit] | –
65 | CCOc1cc(C(=O)NC2CCN(c3cc(-c4ccccc4)[nH]n3)CC2)cc(OCC)c1OCC | inactive: -23.1% | – | –
66 | CCc1noc(-c2ccn3c(CNC(=O)Cc4ccc(Cl)cc4)nnc3c2)n1 | – | inconclusive: 5.01 µM [inhibitor, partial curve, poor fit] | –
